In the supplement of paper PMC3334620:
Whole data set: some 33,000 sequences, median “E-score (-0.5 to 0.5)” near -0.012, cut for the highest 2% near 0.27. Some of the results follow.

The sequences below were run against T1, Vhr1 (UniProt P40522) (assay: PBM E-score (8-mer binding enrichment) (E-score (-0.5 to 0.5)); higher = stronger / more preferred TF binding; most listed sequences are background and not binding sites). Conditions: protein concentration: 200 nM; construct: GST-full length.
T1 sequence: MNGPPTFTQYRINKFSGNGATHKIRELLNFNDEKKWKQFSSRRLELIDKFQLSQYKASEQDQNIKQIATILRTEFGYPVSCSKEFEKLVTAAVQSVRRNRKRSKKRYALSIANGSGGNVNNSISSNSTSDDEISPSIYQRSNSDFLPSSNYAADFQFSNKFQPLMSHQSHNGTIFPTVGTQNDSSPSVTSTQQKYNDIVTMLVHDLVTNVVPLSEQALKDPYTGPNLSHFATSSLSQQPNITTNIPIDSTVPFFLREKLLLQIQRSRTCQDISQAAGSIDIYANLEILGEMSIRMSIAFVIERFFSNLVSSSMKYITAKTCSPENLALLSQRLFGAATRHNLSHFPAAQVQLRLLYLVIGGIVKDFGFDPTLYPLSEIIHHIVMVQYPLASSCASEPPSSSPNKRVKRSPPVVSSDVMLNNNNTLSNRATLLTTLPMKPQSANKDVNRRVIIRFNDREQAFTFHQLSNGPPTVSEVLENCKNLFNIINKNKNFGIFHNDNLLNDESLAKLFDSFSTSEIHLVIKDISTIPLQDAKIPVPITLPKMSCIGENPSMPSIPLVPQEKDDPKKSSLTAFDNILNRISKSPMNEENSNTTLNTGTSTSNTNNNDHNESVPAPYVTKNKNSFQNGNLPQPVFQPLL
Procedure, shortened: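 E-scores (a modified Wilcoxon-Mann-Whitney statistic) were assigned by the Universal PBM Analysis Suite to every ungapped eight-base word pooled with its reverse complement. The input came from universal all-10-mer Agilent arrays made double-stranded by primer extension and probed with GST-tagged yeast transcription factors at about 100-200 nM. Fluorescent anti-GST detected bound protein, and masliner normalised the scans.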

Row | Sequence | PBM E-score
1 | AATCAAAC | 0.0462
2 | CCCCCCGG | -0.021
3 | GGTTCATA | 0.1
4 | CGATAAGC | -0.191
5 | TGGAGGAA | -0.0594
6 | AGATAGGG | -0.26
7 | AGACCAAG | 0.0449
8 | GAATGCAA | -0.109
9 | ACCGGTAC | -0.222
10 | AAGTCATC | 0.323
11 | AGAAGGCC | -0.152
12 | AAGAACGG | -0.00677
13 | CTGCCAAA | 0.0428
14 | CGATTCTA | -0.137
15 | AAAAGTCC | -0.265
16 | AGTCCACT | -0.158
17 | AAGAAGGT | -0.0924
18 | CTACCGCC | -0.055
19 | AACCTTAT | -0.0319
20 | ACTCCGGA | 0.188
21 | CCAGTCAA | 0.045
22 | AACGGATA | 0.0678
23 | ACGGGCAC | -0.0445
24 | CGCGAGGC | 0.138
25 | AATAGATC | 0.0118

Row | Sequence | PBM E-score
26 | CCTTAGCC | -0.076
27 | TCTAAAGA | 0.0488
28 | ATGCGAAT | 0.186
29 | AATAATGA | 0.0266
30 | GAAAATGA | -0.0818
31 | AACGAGTA | 0.134
32 | CGTGGATA | -0.0329
33 | ATCCAGTC | 0.187
34 | AAGCGGTC | 0.0473
35 | ACGTTCAG | -0.171
36 | GCGGTACA | 0.0387
37 | AGCACACT | 0.122
38 | AGACTACC | 0.0276
39 | ATCAAACC | 0.0981
40 | GCATAGCC | -0.171
41 | ACAACCCC | -0.061
42 | GATGGTAC | 0.0306
43 | ATCAGATC | -0.0603
44 | CAATTGTA | -0.0887
45 | ACGATTAG | 0.045
46 | GTGTTTAA | -0.0256
47 | GCAAAAGA | -0.0677
48 | ATAGCCCG | -0.124
49 | AGGGACTG | 0.0457
50 | ATACGCGG | -0.0262

Row | Sequence | PBM E-score
51 | CTTCGCTC | -0.0922
52 | CTGCCGTC | 0.0236
53 | GAAATCCA | -0.0854
54 | GGTTAATA | 0.103
55 | CAGCTGGG | 0.134
56 | CTAACGAA | -0.14
57 | GGGTGAAC | 0.0885
58 | CTGTTCGA | -0.156
59 | AAGTGATT | 0.192
60 | ATTCCTCC | 0.00734
61 | CTGTTGCC | -0.169
62 | GACTTTTA | -0.265
63 | ATAGACCG | -0.0898
64 | CATCTGCC | -0.0601
65 | TAATCAGA | 0.146
66 | CATTTCAC | -0.115
67 | CTCCGCAC | -0.00478
68 | GCCCTCAC | 0.0633
69 | CCCCTCCA | 0.174
70 | AGATTCCC | -0.0261
71 | ACGATGGG | 0.0176
72 | CTATAACA | -0.0876
73 | CCTGGGGC | -0.256
74 | AACTGCTC | -0.0909
75 | CGCTCTCC | -0.168

Row | Sequence | PBM E-score
76 | ACATGAAT | 0.228
77 | CGTGCAAC | -0.0564
78 | GTCTTAGA | -0.0647
79 | AATACAGG | 0.111
80 | GCTGCTAA | -0.0776
81 | AGGCTTAT | -0.0879
82 | ATAACGGA | 0.0722
83 | ATAGCCTA | 0.11
84 | CCATTATC | 0.126
85 | CCAGTCCG | -0.0813
86 | AACAGATC | -0.0905
87 | GTTGGCTA | 0.0235
88 | ACGCGCCC | -0.0551
89 | GGGTTACC | -0.032
90 | ATATAAAC | 0.121
91 | CGCACGGC | -0.0492
92 | AGTCGGCC | 0.278
93 | GGGTTTAA | -0.14
94 | GTTGCGAA | -0.0321
95 | TCGGGCAA | -0.165
96 | AGACAGCG | -0.0643
97 | GTCGGTAA | -0.113
98 | ACATTCAG | -0.102
99 | AGCCAGTA | 0.133
100 | AAATAAAA | -0.15

Row | Sequence | PBM E-score
101 | TAGATATA | 0.0912
102 | GAGGAATC | 0.0804
103 | AATAACCA | 0.0138
104 | AATACAAC | 0.0738
105 | CTTACCAC | -0.0307
106 | ATGATTAC | 0.391
107 | AGCTCCTC | -0.282
108 | CCGTGCCC | -0.125
109 | AAACGAGT | 0.178
110 | AACGATGC | -0.267
111 | AGTTTCAA | -0.124
112 | CTCAATGC | -0.0586
113 | ATGTTGAA | 0.0174
114 | CGACTTGC | 0.104
115 | TACAGCTA | 0.024
116 | CGTGAAAC | -0.243
117 | ACAATGAT | 0.197
118 | GTGAGGAA | -0.038
119 | ACGCAAAT | 0.0646
120 | TCCACGAA | 0.0847
121 | CATGAGGA | 0.0735
122 | CCCCACGA | 0.0936
123 | GACATTAA | -0.0904
124 | AGTACGCG | 0.0152
125 | GACTCGGC | 0.213

Row | Sequence | PBM E-score
126 | GCGTAATA | 0.0801
127 | TATCCCCA | 0.0927
128 | GAATAGTC | 0.14
129 | GTTCAATA | -0.00435
130 | AAGATCCA | -0.00767
131 | CTTTCTTA | -0.209
132 | CTTCCGGA | -0.166
133 | CGCCATCC | -0.0639
134 | GTAAACAA | 0.0447
135 | ATGGGAAA | -0.149
136 | CACTCCAA | -0.0718
137 | CAAAAGTC | -0.13
138 | ATAGCTCC | -0.107
139 | GCTATACA | -0.0428
140 | ACCATAGT | 0.0959
141 | GTGTCTTA | 0.0499
142 | AATTTACA | -0.166
143 | AGTATACG | 0.0162
144 | CCCCTTAC | -0.0935
145 | CAATAGCA | -0.121
146 | ACTACGCC | -0.0476
147 | ATAACATC | 0.18
148 | GCTTACGA | -0.203
149 | CGTCTCAA | -0.0154
150 | AAAGAAAA | -0.0932

Row | Sequence | PBM E-score
151 | GTAATAGA | -0.0372
152 | ATTCTAAC | -0.0555
153 | CCCTCCCA | 0.236
154 | AACAAGTA | -0.286
155 | AACCTCTG | -0.0213
156 | ACTGGGTC | -0.0808
157 | TGGCGCCA | -0.0479
158 | GGAAAGAA | -0.0899
159 | ATGGTATA | 0.095
160 | TGCGCCAA | -0.115
161 | CGGGGTCA | 0.102
162 | CCTGGGAC | -0.192
163 | ATCTGGTC | 0.0894
164 | TGATGCAA | 0.117
165 | GACAAACA | 0.0616
166 | TGCCGACA | 0.0737
167 | CCATTGTA | 0.179
168 | TACAAGCA | 0.126
169 | AATGCACT | 0.00935
170 | ACGTATAT | 0.0948
171 | CCCGAAAC | -0.189
172 | ATGATAGC | 0.0539
